Measurements: PubChem BioAssay AID1476 (National Center for Advancing Translational Sciences (NCATS), 2009)
Several values for one entry are separate records, joined by “and”; a condition that tells them apart may be missing. Identical values can stand only once. Hit rate of the full screen: of about 200,000 compounds, about 4,500 (2.2%) were called active. The inconclusive results got no clear call from the source; some entries with a clear call stand among them for comparison. Calls follow the shape of the dose curve; as a rule, active = well fitted inhibition curve with a large enough effect; inconclusive = small, poorly fitted or top-dose-only effect, or effect the other way; inactive = flat fitted curve, though single readings scatter. Potencies beside an inconclusive call are fits to weak or partial responses and may not hold up.

molecular target: Cruzipain (Trypanosoma cruzi) (UniProt P25779); assay: qHTS Assay for Promiscuous and Specific Inhibitors of Cruzain (without detergent); settings: purified cruzain, Z-FR-AMC fluorescence, no detergent; also: nearly all actives have a fitted effect of over 40% in size;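 as to max response, negative = inhibition: plate controls were enzyme without inhibitor for no effect and buffer without enzyme for full effect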
How it was run: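 Purified cruzain at 1.5 nM, pre-incubated 15 min with compound at room temperature in 100 mM sodium acetate pH 5.5, 5 mM DTT, 0.00005% Triton X-100. Reaction started with 2 uM Z-FR-AMC; AMC fluorescence increase over 60 s gives rate.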
Potency is read from the fitted curve at half-maximal effect; tags tell the direction and shape of the fitted curve.

UniProt P25779, sequence (P25779 whole entry, looked up): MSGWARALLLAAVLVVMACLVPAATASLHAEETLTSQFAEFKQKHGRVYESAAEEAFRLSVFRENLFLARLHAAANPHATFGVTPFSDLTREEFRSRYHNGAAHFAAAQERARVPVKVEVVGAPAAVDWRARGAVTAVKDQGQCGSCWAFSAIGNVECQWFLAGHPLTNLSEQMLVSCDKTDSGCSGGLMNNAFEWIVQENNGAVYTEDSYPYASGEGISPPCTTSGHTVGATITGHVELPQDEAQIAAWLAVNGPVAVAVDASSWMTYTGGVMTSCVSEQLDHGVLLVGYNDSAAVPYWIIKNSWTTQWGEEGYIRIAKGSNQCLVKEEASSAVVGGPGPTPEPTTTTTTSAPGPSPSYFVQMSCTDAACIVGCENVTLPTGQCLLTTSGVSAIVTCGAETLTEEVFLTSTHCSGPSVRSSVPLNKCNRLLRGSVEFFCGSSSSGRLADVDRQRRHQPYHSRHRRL

Row | Compound | Potency | max response, negative = inhibition
1 | CCOc1ccc(C(=O)N2CCC(c3noc(-c4ccc(S(=O)(=O)N5CCCC5)cc4)n3)CC2)cc1 | inconclusive: 31.6 µM [activator, single point] | 
2 | COc1cc(NC(=O)Cn2c(=O)n(Cc3ccco3)c(=O)c3oc4ccccc4c32)cc(OC)c1 |  | inactive: -21.5%
3 | C/C(=C\c1ccccc1)C(=O)Nc1nc2ccc([N+](=O)[O-])cc2s1 | inconclusive: 31.6 µM [inhibitor, single point] | 
4 | Cc1cc(C)cc(NS(=O)(=O)c2ccc3[nH]cc(C(=O)NCc4ccccc4Cl)c(=O)c3c2)c1 | inconclusive: 39.8 µM [inhibitor, single point] | 
5 | CCOC(=O)C1=C(C)NC(C)=C(C(=O)OCC)C1C(=O)OCC(=O)c1ccc2c(c1)OCCO2 | inconclusive: 31.6 µM [activator, single point] | 
6 | COc1ccc(C2CNC(=O)C2)cc1OC1CCCC1 (stereo not drawn) | inconclusive: 17.8 µM [inhibitor, single point] | 
7 | O=C(N/N=C/c1ccc2ccccc2c1)c1ccc(COc2ccc3c(c2)CCC3)o1 | active: 20 µM | 
8 | O=C(c1ccc(S(=O)(=O)N2CCOCC2)cc1)N1CCN(c2ccccc2F)CC1 | inconclusive: 20 µM [activator, single point] | 
9 | COC(=O)CCn1cnc2onc(-c3cc(F)cc(F)c3)c2c1=O |  | inactive: -5.04%
10 | Cc1ccc(C)c(CS(=O)(=O)c2cn(CC(=O)N(C(C)C)C(C)C)c3ccccc23)c1 |  | inactive: 16.2%
11 | CC(C)Sc1ncc(Cl)c(C(=O)Nc2ccc(S(=O)(=O)N(C)c3ccccc3)cc2)n1 | inconclusive: 31.6 µM [inhibitor, single point] | 
12 | O=C(Nc1c(C(=O)Nc2ccccc2F)oc2ccccc12)c1cc2ccccc2o1 |  | inactive: 2.12%
13 | CC(OC(=O)c1cc(-c2cccnc2)nc2ccccc12)C(=O)Nc1ccc2ccccc2c1 (stereo not drawn) | inconclusive: 12.6 µM [inhibitor, single point] | 
14 | COc1ccc2[nH]c(C)c(CCN(Cc3cccs3)C(=S)Nc3ccccc3OC)c2c1 | active: 15.8 µM | 
15 | CCn1c(SCC(=O)Nc2ccc(-c3nc4ccc(C)cc4s3)cc2)nnc1-c1ccccc1 | inconclusive: 25.1 µM [activator, single point] | 
16 | COc1ccc2c(c1)c1c(c(=O)n(-c3ccccc3)c(=O)n1CC(=O)Nc1ccc(C)c(C)c1)n2C |  | inactive: -1.53%
17 | Cc1ccc2c(c1)cc1c(=O)n(CC(=O)N3CCCCC3)nc(C)n12 |  | inactive: 1.47%
18 | Cc1ccc(-n2ncc3c(N4CCC(Cc5ccccc5)CC4)ncnc32)cc1 |  | inactive: 9.39%
19 | CC(=O)c1ccc(-n2nnnc2SCC(=O)Nc2cccc(NC(=O)c3ccco3)c2)cc1 | inconclusive: 39.8 µM [inhibitor, single point] | 
20 | CCOC(=O)C(NC(=O)NC1CCCCC1)(c1ccccc1)C(F)(F)F (stereo not drawn) | active: 3.16 µM | 
21 | O=C1C2C(c3ccccc3)C=CC(c3ccccc3)C2C(=O)N1CCCO (stereo not drawn) | inconclusive: 25.1 µM [activator, single point] | 

Row | Compound | Potency | max response, negative = inhibition
22 | CCOc1cc2nc(-c3ccc(OC)c(OC)c3)nc(N3CC(C)OC(C)C3)c2cc1OC (stereo not drawn) | inconclusive: 31.6 µM [activator, partial curve] | 
23 | Cc1ccc(NC(=O)c2cc(NC(=O)CCC(=O)O)ccc2N2CCCCC2)cc1 | inconclusive: 39.8 µM [activator, single point] | 
24 | CC1Cc2nc(SCC(=O)Nc3ccc4c(c3)OCO4)n(Cc3ccccc3)c(=O)c2S1 (stereo not drawn) | active: 31.6 µM | 
25 | CC(=O)NCCn1c(SCc2ccc(C)cc2)nc2ccccc2c1=O | inconclusive: 39.8 µM [activator, single point] | 
26 | CC(C)NC(=O)C1CCN(c2nc3ccccc3nc2C(F)(F)F)CC1 |  | inactive: 1.37%
27 | CC(C)OCCCNc1ncnc2c1[nH]c1ccccc12 | active: 15.8 µM | 
28 | CC1CCN(S(=O)(=O)c2ccc3c(c2)CCC(=O)N3CC(=O)Nc2cccc(C#N)c2)CC1 |  | inactive: -3.35%
29 | COc1cccc(Cn2c(=O)cnc3cnc(Nc4ccccc4)nc32)c1 | inconclusive: 25.1 µM [inhibitor, single point] | 
30 | COc1ccccc1/C=N\Nc1cc(C)nc(-n2nc(C)cc2C)n1 | inconclusive: 20 µM [activator, partial curve] | 
31 | Cc1ccc(Cn2c(C)c(CNCCCc3ccccc3)c(C(=O)O)c2C)cc1 |  | inactive: -5.55%
32 | CCCCCCCOc1ccc(OC(=O)c2ccncc2)cc1 | inconclusive: 31.6 µM [inhibitor, single point] | 
33 | COc1ccc(CNc2nc3c(c(=O)n(C)c(=O)n3C)n2Cc2ccccc2Cl)cc1 |  | inactive: -12.7%
34 | Cc1cccc(-c2noc(-c3ccc(N4CCN(C)CC4)c([N+](=O)[O-])c3)n2)c1 | inconclusive: 15.8 µM [activator, partial curve] | 
35 | CCOC(=O)c1ccc(CN(Cc2ccccc2C)S(=O)(=O)c2ccc(C(C)(C)C)cc2)cc1 | inconclusive: 15.8 µM [inhibitor, partial curve, poor fit] | 
36 | COc1cccc(C2C(C(=O)Nc3ccccc3)=C(C)Nc3nc(-c4ccccc4)nn32)c1OC (stereo not drawn) | inconclusive: 31.6 µM [activator, single point] | 
37 | CCCCCCCCc1nnc(NC(=O)c2ccco2)s1 | inconclusive: 39.8 µM [inhibitor, single point] | 
38 | COC(=O)c1cn(NC(=O)/C=C/c2cccc(OC)c2OC)c(=O)c2ccccc12 | inconclusive: 39.8 µM [inhibitor, single point] | 
39 | Cc1ccc(-c2nn3c(C)nnc3s2)cc1NC(=O)c1ccc(-c2ccc(Cl)cc2Cl)o1 | inconclusive: 3.16 µM [activator, full curve] | 
40 | CCOc1cccc(=O)c2c(C)n(Cc3ccco3)c(C)c12 | inconclusive: 39.8 µM [inhibitor, single point] | 
41 | Cc1ccnc(NC(=O)c2sc3ccccc3c2Cl)c1 | inconclusive: 3.16 µM [inhibitor, single point] | 
42 | Cc1cc(-n2[nH]c(C)c(C)c2=O)nc(-c2ccccc2O)n1 | inconclusive: 31.6 µM [activator, single point] | 

Row | Compound | Potency | max response, negative = inhibition
43 | Cn1ncc(C(=O)N2CCN(c3ccc(F)cc3)CC2)c1C1CCN(C(=O)OC(C)(C)C)CC1 | inconclusive: 25.1 µM [activator, single point] | 
44 | CCn1cc(C(=O)NCC2CCCO2)c(=O)c2cc(S(=O)(=O)N3CCC(C)CC3)ccc21 (stereo not drawn) | inconclusive: 39.8 µM [activator, single point] | 
45 | COc1ccc(-c2noc(-c3ccc(N4CCCCC4C)c([N+](=O)[O-])c3)n2)cc1OC (stereo not drawn) |  | inactive: 17.4%
46 | Cc1ccc(NC(=O)c2ccc(NCCc3ccccc3)c([N+](=O)[O-])c2)cc1F | inconclusive: 31.6 µM [inhibitor, single point] | 
47 | COc1ccccc1NS(=O)(=O)c1ccc2oc(SC3CCOC3=O)nc2c1 (stereo not drawn) | inconclusive: 25.1 µM [inhibitor, single point] | 
48 | CC(C)N(Cc1nc(-c2ccccc2)no1)C(=O)CN(C)S(=O)(=O)c1ccc(Br)cc1 | inconclusive: 25.1 µM [activator, single point] | 
49 | Cn1c(N2CCC(C(N)=O)CC2)nc2c1c(=O)n(Cc1ccc(Cl)cc1)c(=O)n2C | inconclusive: 39.8 µM [activator, single point] | 
50 | CCOc1ccccc1CNC(=O)c1ccc2c(c1)sc1nc(-c3cccc(OC)c3)cn12 |  | inactive: -8.08%
51 | c1ccc(-c2[nH]c[n+](CC3CO3)c2-c2ccccc2)cc1 (stereo not drawn) | inconclusive: 31.6 µM [inhibitor, single point] | 
52 | COC(=O)c1c(-c2cccs2)csc1NC(=O)CSc1ncnc2sc(C)c(C)c12 | active: 6.31 µM | 
53 | Cn1c(=O)[nH]c(=O)c2c1nc(CN1CCN(c3cccc(Cl)c3)CC1)n2CCN1CCOCC1 | inconclusive: 25.1 µM [activator, single point] | 
54 | CCSc1nnc(NC(=O)COc2ccc3ccccc3c2)s1 | inconclusive: 25.1 µM [inhibitor, single point] | 
55 | COc1ccc2[nH]c(=O)c(CN(Cc3ccc(C)cc3)Cc3nnnn3CC3CCCO3)cc2c1 (stereo not drawn) | inconclusive: 39.8 µM [activator, single point] | 
56 | N#CCCCSc1nnc(CSc2nc3ccccc3s2)n1-c1ccccc1 | inconclusive: 31.6 µM [activator, single point] | 
57 | Cc1cccc(NC(=O)c2cc(NC(=O)C3CCCCC3C(=O)O)ccc2N2CCCCC2)c1 (stereo not drawn) | inconclusive: 39.8 µM [activator, single point] | 
58 | CCOCc1nnc(NC(=O)c2cc(Cl)ccc2OC)s1 | inconclusive: 31.6 µM [activator, single point] | 
59 | CC1=C(C(=O)OCc2ccccc2)C(c2ccc(C(F)(F)F)cc2)NC(=O)N1CCCCCC(=O)O (stereo not drawn) | inconclusive: 31.6 µM [activator, single point] and inconclusive: 39.8 µM [activator, single point] | 
60 | COc1cc(C2=NOC(C(=O)N3CCCc4ccccc43)C2)cc(OC)c1OC (stereo not drawn) | inconclusive: 39.8 µM [activator, single point] | 
61 | COc1ccc(/C=C/c2nc(C#N)c(N3CCC(C)CC3)o2)cc1OC | inconclusive: 39.8 µM [activator, single point] | 
62 | COc1ccc(Nc2ncc3c(n2)CCN(Cc2ccc(Br)s2)C3)c(OC)c1 |  | inactive: -6.14%
63 | O=C(Nc1ccc2c3c(cccc13)CC2)c1cccc([N+](=O)[O-])c1 | inconclusive: 39.8 µM [inhibitor, single point] | 
